# Whole data set: some 33,000 sequences, median “E-score (-0.5 to 0.5)” near -0.012, cut for the highest 2% near 0.27. Some of the results follow.
# Target: T1, Vhr1 (UniProt P40522)
# T1 sequence: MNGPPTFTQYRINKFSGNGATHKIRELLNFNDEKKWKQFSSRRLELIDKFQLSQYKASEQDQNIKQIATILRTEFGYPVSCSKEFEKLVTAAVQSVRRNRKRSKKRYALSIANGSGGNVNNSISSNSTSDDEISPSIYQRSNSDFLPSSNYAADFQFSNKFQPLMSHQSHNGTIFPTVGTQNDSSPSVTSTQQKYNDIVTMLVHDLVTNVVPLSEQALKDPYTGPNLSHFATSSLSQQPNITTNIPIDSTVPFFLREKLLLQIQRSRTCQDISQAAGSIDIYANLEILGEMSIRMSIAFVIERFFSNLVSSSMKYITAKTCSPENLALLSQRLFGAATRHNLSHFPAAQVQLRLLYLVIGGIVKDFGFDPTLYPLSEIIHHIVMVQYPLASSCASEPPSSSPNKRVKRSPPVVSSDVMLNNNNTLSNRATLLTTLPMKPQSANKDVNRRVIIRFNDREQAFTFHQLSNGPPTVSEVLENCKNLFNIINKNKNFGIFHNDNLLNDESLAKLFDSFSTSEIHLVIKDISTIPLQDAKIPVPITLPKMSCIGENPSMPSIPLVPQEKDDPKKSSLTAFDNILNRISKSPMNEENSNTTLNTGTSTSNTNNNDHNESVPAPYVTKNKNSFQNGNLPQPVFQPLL
# Assay: PBM E-score (8-mer binding enrichment) (E-score (-0.5 to 0.5)); higher = stronger / more preferred TF binding; most listed sequences are background and not binding sites
# Conditions: protein concentration: 200 nM; construct: GST-full length
# In short: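 Universal all-10-mer Agilent arrays, double-stranded by primer extension on fresh or once-stripped slides, were probed with about 100-200 nM GST-tagged yeast transcription factors made by PURExpress. Fluorescent anti-GST detected bound protein, and masliner normalised the scans. E-scores from the Universal PBM Analysis Suite were given to each ungapped eight-base word pooled with its reverse complement.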
row,Sequence,PBM E-score
1,CGTCGATA,-0.0034
2,ATCAAAAC,-0.0539
3,AAAGGCTC,-0.223
4,ACCTCTTA,0.0805
5,TCTCACAA,0.0793
6,CACATAGA,0.00197
7,ACAGATCA,-0.0142
8,GGCGTGGA,-0.0947
9,CACTCTCA,-0.0995
10,GAAATTAA,-0.0243
11,CCTTACGA,-0.17
12,ATCTCTAA,-0.00351
13,TCATAACA,0.272
14,ATTTATCC,-0.0317
15,TAAAATTA,-0.168
16,AGAACCCG,-0.0768
17,CAAGCAGG,-0.0423
18,ACGGCCAA,-0.156
19,AGCAACTC,-0.0748
20,CGTCTCGC,-0.0775
21,AATCTGAA,0.0756
22,AATCTAGC,-0.218
23,GCATCAGC,-0.0271
24,TAGCATCA,0.0453

row,Sequence,PBM E-score
1,TCCCAAAA,-0.0725
2,CTCCGTTC,-0.0538
3,CACAGACC,0.307
4,CGACCACC,-0.00207
5,GATGTTTA,0.118
6,ATAATAGA,-0.0909
7,CCACCACC,0.0973
8,AATTGAAT,-0.237
9,CTACCACC,-0.0685
10,GTGACCCA,0.267
11,CGTGCACG,-0.154
12,ATCCGCGG,0.0552
13,AATAACGA,-0.0329
14,CGATACCC,-0.106
15,AGTGTTCG,-0.0146
16,AGACAGGC,0.0179
17,AAGGTCCT,-0.285
18,ATACACGA,0.152
19,AATCGAGT,0.0782
20,CATACATA,0.238
21,AAACGTAT,0.0453
22,ACTGGCAA,-0.262
23,ACCGTAAA,-0.047
24,AAATGTGG,0.0751

row,Sequence,PBM E-score
1,GCGCAAAA,0.0395
2,AGGCGGCC,-0.124
3,AGGTCGAC,0.134
4,ACTTGCAC,0.105
5,AGACCACC,-0.0784
6,AAGTTCAT,-0.0454
7,CACGTTGC,-0.183
8,AGGGAGTA,0.113
9,GGACCCCC,-0.356
10,GAGCGCGC,0.181
11,ACACTCCT,0.103
12,AATGATAA,0.106
13,AATTCCAC,0.00803
14,TATACGAA,-0.0271
15,GGCCAACC,-0.0564
16,GGCCAGAC,-0.136
17,GGATTAAA,-0.0356
18,GCGGTTGA,0.111
19,ATTTAGTA,0.224
20,TCTGGCCA,-0.192
21,ATGGGGCG,0.0437
22,ATCGACGC,0.0154
23,GCGATACC,-0.0158
24,CCTTAGCA,0.0478

row,Sequence,PBM E-score
1,AGAACTGA,-0.183
2,AAGTTCCT,-0.381
3,AGTACTAA,0.128
4,AAGACACG,0.00364
5,AGTCCGTC,0.0219
6,AGATTCCA,0.00955
7,ATGTTCAA,-0.144
8,CGTGGTTA,0.0993
9,CCGCCTTA,0.0044
10,CAGGTTGG,0.0923
11,ACAATGCA,0.137
12,CCGCACGG,-0.129
13,CGAAAGCC,-0.241
14,TATATGAA,0.164
15,GAGGTATA,0.113
16,ACGATGCA,-0.0037
17,ATAGTAGA,0.0694
18,ACTGTTGA,-0.0703
19,AGTATCTG,-0.168
20,CATCCAAG,0.0266
21,GCTAGTTA,0.00532
22,CCTTCAAG,-0.248

# — the supplement of paper PMC3334620
